From the supplement of paper PMC3334620
The full ranking holds about 33,000 sequences; the median of “E-score (-0.5 to 0.5)” is about -0.056, and the highest 2% start at about 0.38. Some of the results follow.

The sequences below were run against Stb4 (UniProt P50104) (assay: PBM E-score (8-mer binding enrichment) (E-score (-0.5 to 0.5)); higher = stronger / more preferred TF binding; most listed sequences are background and not binding sites). Details: protein concentration: 200 nM; construct: GST-DNA-binding domain.
Method in brief: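 GST-tagged yeast TFs (full-length or DNA-binding domain) were made by PURExpress in vitro transcription/translation and applied at about 100-200 nM to universal all-10-mer Agilent arrays. The arrays were made double-stranded by primer extension, on fresh or once-stripped slides. Bound protein was detected with fluorescent anti-GST, and scans were normalised with masliner. Each ungapped eight-base word, pooled with its reverse complement, received an E-score (modified Wilcoxon-Mann-Whitney statistic) from the Universal PBM Analysis Suite.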
In the case of CGGTAACC, the “PBM E-score” value is reported as 0.231.
For AGTGGCAC, the “PBM E-score” value was -0.149.
With GTTCAAAC the “PBM E-score” value was 0.0996.
With ATGAAGAG the “PBM E-score” value was -0.144.
For CTTCGAAA, the “PBM E-score” value was -0.2.
With AAGTGAGG the “PBM E-score” value was -0.184.
In the case of ATGACTCA, the “PBM E-score” value is reported as -0.093.
CAAGAATA was tested, and the “PBM E-score” value was 0.121.
In the case of ATCTACGC, the “PBM E-score” value is reported as 0.0191.
TAAAAGAA was tested, and the “PBM E-score” value was -0.262.
With TGGTAGAA the “PBM E-score” value was -0.174.
With CAGGCGGG the “PBM E-score” value was 0.0295.
For CCCTACCG, the “PBM E-score” value was 0.137.
For CATACTGC, the “PBM E-score” value was -0.144.
For AGGAGTCG, the “PBM E-score” value was -0.142.
In the case of GCGACTGA, the “PBM E-score” value is reported as -0.265.
With GTGTTAGA the “PBM E-score” value was -0.00711.
For AAATCTAG, the “PBM E-score” value was -0.102.
ATGCCAAC was tested, and the “PBM E-score” value was -0.209.
With CAACGATA the “PBM E-score” value was 0.0213.
For CAGCACAG, the “PBM E-score” value was -0.28.
For AGATCCGC, the “PBM E-score” value was 0.291.
With TCAGGCGA the “PBM E-score” value was -0.19.
ATTAGTGC was tested, and the “PBM E-score” value was 0.106.
For GCTGGCAA, the “PBM E-score” value was -0.0422.
With AATAGGGA the “PBM E-score” value was -0.00618.
For CACAGCGG, the “PBM E-score” value was -0.0365.
For GAACAATA, the “PBM E-score” value was 0.108.
For CCATGCCC, the “PBM E-score” value was 0.0964.
CCTGGATC was tested, and the “PBM E-score” value was -0.228.
In the case of ATCTTCTC, the “PBM E-score” value is reported as 0.0752.
For CTGCGCAG, the “PBM E-score” value was -0.123.
CTCACGCA was tested, and the “PBM E-score” value was -0.057.
CGAACCTA was tested, and the “PBM E-score” value was 0.167.
In the case of ACTTGTTA, the “PBM E-score” value is reported as -0.0394.
With ACCCGCAA the “PBM E-score” value was 0.153.
In the case of ATTATAAC, the “PBM E-score” value is reported as 0.0597.
For CTGGGCCA, the “PBM E-score” value was -0.209.
CCTGCCCG was tested, and the “PBM E-score” value was 0.0763.
For AGAATGTG, the “PBM E-score” value was -0.341.
GTGAGATA was tested, and the “PBM E-score” value was -0.0558.
In the case of CCACGAAG, the “PBM E-score” value is reported as -0.337.
ATCCGAGC was tested, and the “PBM E-score” value was 0.478.
In the case of CTTTACCA, the “PBM E-score” value is reported as -0.245.
In the case of CCGTGCCG, the “PBM E-score” value is reported as 0.302.
AGACTAAA was tested, and the “PBM E-score” value was -0.0468.
CACGCCAG was tested, and the “PBM E-score” value was -0.0642.
In the case of CGTACAAA, the “PBM E-score” value is reported as -0.0595.
In the case of CAGAAGAG, the “PBM E-score” value is reported as -0.331.
In the case of ACTATCTA, the “PBM E-score” value is reported as -0.175.
ATTCCGTG was tested, and the “PBM E-score” value was 0.363.
For AAATTTGT, the “PBM E-score” value was 0.0181.
With GAGAAGAC the “PBM E-score” value was -0.161.
In the case of AGGAAGAT, the “PBM E-score” value is reported as -0.0288.
With CCGTCGCG the “PBM E-score” value was 0.14.
With GGTGTTTA the “PBM E-score” value was 0.0577.
In the case of CAGCCTCG, the “PBM E-score” value is reported as 0.076.
In the case of GAGCAAGA, the “PBM E-score” value is reported as -0.0683.
In the case of CCGAGAGG, the “PBM E-score” value is reported as 0.38.
With GTTCGGGA the “PBM E-score” value was 0.453.
TGGTTTAA was tested, and the “PBM E-score” value was -0.219.
In the case of ATCTCGTG, the “PBM E-score” value is reported as -0.114.
In the case of ATTCCCCC, the “PBM E-score” value is reported as 0.0951.
In the case of ATCACTCC, the “PBM E-score” value is reported as 0.0118.
For CACGCCCC, the “PBM E-score” value was 0.0645.
For ATACGCAG, the “PBM E-score” value was -0.262.
With GTGCAGTA the “PBM E-score” value was 0.112.
GAGCTGGA was tested, and the “PBM E-score” value was -0.0262.
With GCCAACAC the “PBM E-score” value was 0.212.
For CAATCTTC, the “PBM E-score” value was 0.0234.
For ACGCTTCT, the “PBM E-score” value was -0.115.
For CCCGTACA, the “PBM E-score” value was 0.00392.
For GATAGCTA, the “PBM E-score” value was 0.0444.
In the case of CGACTGAC, the “PBM E-score” value is reported as -0.101.
CAAATATC was tested, and the “PBM E-score” value was 0.16.
In the case of GTACCAGA, the “PBM E-score” value is reported as -0.259.
With CCGCGCAA the “PBM E-score” value was 0.0559.
For CGATTCGA, the “PBM E-score” value was 0.00951.
In the case of ACACTAGT, the “PBM E-score” value is reported as -0.248.
For AATGCCCC, the “PBM E-score” value was -0.117.
In the case of AATTGGGA, the “PBM E-score” value is reported as 0.0291.
In the case of AACCTGTG, the “PBM E-score” value is reported as -0.123.
In the case of TAACGCTA, the “PBM E-score” value is reported as -0.0688.
ATGGCTTG was tested, and the “PBM E-score” value was -0.155.
In the case of ATTTACTG, the “PBM E-score” value is reported as -0.142.
AACAATGT was tested, and the “PBM E-score” value was -0.0925.
For AGATAGCG, the “PBM E-score” value was -0.113.
AACGACCG was tested, and the “PBM E-score” value was -0.0706.
For AGTAAATA, the “PBM E-score” value was 0.0993.
With ATCTCTGC the “PBM E-score” value was -0.0871.
For CGACGCTC, the “PBM E-score” value was -0.00583.
GTTTGCAA was tested, and the “PBM E-score” value was -0.113.
In the case of AGGTTGTC, the “PBM E-score” value is reported as -0.176.
With CTGGGCCC the “PBM E-score” value was -0.157.
For CCTAGTCG, the “PBM E-score” value was -0.11.
With CTACGAGC the “PBM E-score” value was -0.133.
For ACGCTGTC, the “PBM E-score” value was -0.0299.
With AAGGCCTC the “PBM E-score” value was -0.176.
ATATTTTC was tested, and the “PBM E-score” value was 0.0943.
For ACTCAAGA, the “PBM E-score” value was -0.137.
With CTGCACAC the “PBM E-score” value was -0.221.
With GACCGCCA the “PBM E-score” value was -0.0552.
With AACTTGGG the “PBM E-score” value was 0.0814.
With CGTGAGTA the “PBM E-score” value was -0.122.
With AAGCTCGC the “PBM E-score” value was -0.0388.
For CACCACCC, the “PBM E-score” value was 0.101.
For CAACCGCA, the “PBM E-score” value was 0.0396.
For ATGATCTC, the “PBM E-score” value was -0.159.
CGTACTTA was tested, and the “PBM E-score” value was -0.219.
For CACTCTGG, the “PBM E-score” value was -0.221.
For AGCCAATA, the “PBM E-score” value was -0.174.
In the case of GAGAAGGC, the “PBM E-score” value is reported as -0.246.
With AAATAGTC the “PBM E-score” value was -0.0244.
In the case of GGAATCTA, the “PBM E-score” value is reported as 0.181.
With CCATGGGG the “PBM E-score” value was -0.123.
With CACTCCCC the “PBM E-score” value was 0.16.
In the case of CGAGGTGA, the “PBM E-score” value is reported as 0.104.
For CTCCCTGA, the “PBM E-score” value was -0.245.
AAGCTAAC was tested, and the “PBM E-score” value was -0.157.
For ATATTGAG, the “PBM E-score” value was -0.115.
In the case of AATTGCCT, the “PBM E-score” value is reported as -0.0946.
In the case of CCGTCTTC, the “PBM E-score” value is reported as 0.222.
For AGACCCAT, the “PBM E-score” value was -0.235.
In the case of ACGGAGAA, the “PBM E-score” value is reported as 0.0192.
With CACCAAAG the “PBM E-score” value was -0.0243.
For CTACCTGA, the “PBM E-score” value was -0.083.
For ATGAACCC, the “PBM E-score” value was 0.0956.
With CGGGAGCA the “PBM E-score” value was 0.316.
In the case of CACTTTGC, the “PBM E-score” value is reported as -0.0625.
GGTGCAGA was tested, and the “PBM E-score” value was -0.211.
For GCAGCAAC, the “PBM E-score” value was -0.0766.
For TATGTCCA, the “PBM E-score” value was -0.0533.
In the case of AGCGCTGG, the “PBM E-score” value is reported as -0.166.
AACTTCCA was tested, and the “PBM E-score” value was 0.132.
With AATCCATT the “PBM E-score” value was -0.067.
In the case of AGGCCGAT, the “PBM E-score” value is reported as 0.113.
In the case of GATGCAGC, the “PBM E-score” value is reported as 0.0698.
In the case of CAATTTCC, the “PBM E-score” value is reported as 0.259.
With ATACATCC the “PBM E-score” value was 0.239.
For CAACTAGG, the “PBM E-score” value was -0.0487.
For AGCAACAG, the “PBM E-score” value was 0.0175.
With CGCGTCTA the “PBM E-score” value was -0.145.
GCTCCGGA was tested, and the “PBM E-score” value was 0.346.
ACGGTCTA was tested, and the “PBM E-score” value was -0.0985.
With TGCTTACA the “PBM E-score” value was -0.285.
For ACGTATTG, the “PBM E-score” value was -0.211.
For GCACGGAC, the “PBM E-score” value was 0.13.
With ATACGCCC the “PBM E-score” value was -0.0994.
In the case of GAGGGGGC, the “PBM E-score” value is reported as -0.125.
For CATTACTA, the “PBM E-score” value was -0.106.
In the case of AGGTTCTA, the “PBM E-score” value is reported as -0.0621.
CAAGCAGC was tested, and the “PBM E-score” value was -0.156.
For ATCCACGA, the “PBM E-score” value was -0.273.
For ATAAGAAG, the “PBM E-score” value was 0.106.
ACAAGAGT was tested, and the “PBM E-score” value was -0.0988.
For ATGTTCAG, the “PBM E-score” value was -0.264.
With CACTGTAA the “PBM E-score” value was -0.144.
In the case of CTGACACA, the “PBM E-score” value is reported as -0.165.
CAGTTCGC was tested, and the “PBM E-score” value was -0.194.
With GAAATCAA the “PBM E-score” value was -0.00426.
With AATAAAGC the “PBM E-score” value was -0.0678.
In the case of CATATTGG, the “PBM E-score” value is reported as -0.195.
CGATAGAA was tested, and the “PBM E-score” value was -0.00777.
CTTGGCGC was tested, and the “PBM E-score” value was -0.123.
In the case of ACCGGAGG, the “PBM E-score” value is reported as 0.228.
AGACCCCA was tested, and the “PBM E-score” value was -0.056.
ACGGATCG was tested, and the “PBM E-score” value was 0.315.
In the case of TGAGCCCA, the “PBM E-score” value is reported as -0.221.
ATGAGACG was tested, and the “PBM E-score” value was -0.0812.
ACAGAGGA was tested, and the “PBM E-score” value was -0.262.
AGGATCGG was tested, and the “PBM E-score” value was 0.237.
AGACCCGC was tested, and the “PBM E-score” value was 0.174.
